# Laboratory results: PubChem BioAssay AID686971 (National Center for Advancing Translational Sciences (NCATS), 2013)
# About 7,500 (2.1%) of roughly 360,000 compounds were called active. The shares of active, inactive and inconclusive entries below differ from those in the screen. Calls follow the shape of the dose curve; as a rule, active = well fitted cell-killing curve with a large enough effect; inconclusive = small, poorly fitted or top-dose-only effect, or effect the other way, or another doubt; inactive = no such curve, though single readings can be large or run the other way. No potency is given beside an inconclusive call; the fits are too rough.
# Experiment: qHTS for induction of synthetic lethality in tumor cells producing 2HG: qHTS for the HT-1080-IDH1KD cell line;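 as to activity, negative = toxicity: 0% = DMSO wells and -100% = cell-free medium wells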
# Conditions: HT-1080 IDH1 knockdown viability, ATP luminescence, 48 h; activity, negative = toxicity: at 46.1 µM (top of the series) unless noted
# Outline: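 HT-1080-IDH1KD cells (IDH1 knocked down), 750/well in RPMI with 5% FBS, treated with compound 48 h at 37 degrees C. Viability by CellTiter-Glo luminescence, normalised to DMSO and no-cell wells; concentration-response curves classed.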
# Potency is read from the fitted curve at half-maximal effect; tags tell the direction and shape of the fitted curve.
Compound,Potency,"activity, negative = toxicity"
Cc1ccc(C)c(S(=O)(=O)Nc2ccc3scnc3c2)c1,active: 11.6 µM,
CCSc1ncc(/C=N/Nc2ccc([N+](=O)[O-])cc2)n1C,active: 13 µM,
CCC(C)[C@H](NC(=O)C1CCN(C(=O)[C@H](Cc2ccccc2)NS(=O)(=O)c2ccc(C)cc2)CC1)C(=O)O (stereo partly drawn),"inconclusive [rising, single point]",
O=C(c1ccc(NS(=O)(=O)c2cccc3cccnc23)cc1)N1CCCCC1,,inactive: -5.86%
COc1ccc(OC)c(S(=O)(=O)Nc2cccc3ccc(O)cc23)c1,,inactive: -13.3%
COc1ccc2c(c1)C(C)=CC(C)(C)N2S(=O)(=O)c1ccc(NC(C)=O)cc1,"inconclusive [cytotoxic, full curve]",
CC(C)[C@H](NC(=O)c1ccc(C(C)(C)C)cc1)C(=O)N1CCN(Cc2ccc3c(c2)OCO3)CC1,active: 18.4 µM,
Cc1ccc(NC(=O)c2cc(=O)[nH]c3ccccc23)cc1C,"inconclusive [cytotoxic, single point]",
CC(C)=C[C@H]1C[C@H](C)[C@H]2CC[C@H](C)c3c(O[C@@H]4OC[C@@H](O)[C@H](O)C4O)c(O)c(C)c1c32 (stereo partly drawn),"inconclusive [cytotoxic, single point]",
CCN1CCN(Cc2ccc(NC(=O)c3ccc(C)c(NC(=O)c4csc(-c5ccncc5)n4)c3)cc2C(F)(F)F)CC1,"inconclusive [cytotoxic, single point]",
O=C(Nc1cccc(O)c1)c1cc(-c2ccc3c(c2)OCO3)on1,"inconclusive [cytotoxic, full curve]",
O=C(Nc1ncc(S(=O)(=O)c2ccc([N+](=O)[O-])cc2)s1)c1cccc2ccccc12,"inconclusive [cytotoxic, single point]",
COc1cccc(Nc2cc(C)c3ccccc3n2)c1,"inconclusive [cytotoxic, single point]",
Cc1ccc(NS(=O)(=O)c2cccc(C(=O)NC3CCN(Cc4ccccc4)CC3)c2)c(C)c1,"inconclusive [cytotoxic, single point]",
COC(CN1C(=O)C(O)=C(C(C)=O)C1c1ccccn1)OC (stereo not drawn),,inactive: 4.99%
COc1ccccc1-c1ccc2c(c1)C(C)(Cc1ccc(OC(F)(F)F)cc1)C(=O)N2 (stereo not drawn),"inconclusive [cytotoxic, single point]",
COCCCNC(=O)c1c(N)n(-c2ccc3c(c2)OCO3)c2nc3ccccc3nc12,"inconclusive [cytotoxic, single point]",
CC(=O)C1(O)CCC2C3CC(C)C4=CC(=O)C=CC4(C)C3(F)C(O)CC21C (stereo not drawn),"inconclusive [rising, full curve]",
